Reference: the supplement of paper PMC11417369
Some of the results follow.

system: PF3D7_0420300 AP2 domain 1 (GST-tagged); experiment: gcPBM binding intensity (ln(normalized median fluorescence intensity)); higher = stronger DNA binding
How it was run: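 Binding intensity is the highest Masliner-normalised natural-log median intensity over replicate spots in either probe orientation. To obtain it, GST-tagged P. falciparum DNA-binding domains made in E. coli were incubated for 1 h on an Agilent 4 × 180k array of primer-extended double-stranded 36-bp intergenic genomic probes plus negative controls. Detection used Alexa488 anti-GST antibody with scanning at 488 nm.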

Sequence	gcPBM binding intensity (ln)
CAAGGAACCAGACACACACACATAAATGTATATATA [CACACA_site752]	9.91
ATATATGGAAAGAGTAGTACTATTATAGGGGTGTTA [XGTACX_site6785]	9.55
AAAACAAAAGAATTCACACATATATATATATATATA [CACACA_site4777]	9.41
AAAATTAAACATACATCACACATGCATTATATTATG [CACACA_site5517]	9.38
TTAAACGTACATAATACACACACATGTAGACATATA [CACACA_site8635]	9.79
AAAATTAACGAGTGCACACATATTTAGATAAAATAC [CACACA_site2936]	9.61
ATAAAGTCTATATTATGTACATATAATATAAATATT [XGTACX_site6703]	9.1
AAAAAACTTCACATATGTACTTAAAAAAAATTAAAA [XGTACX_site2368]	8.94
GAACATTACGTAAATAAATAAATAAAAATAAATACA [XGTACX_negctrl_site25]	9.38
TATTGTCTTGTATATGCATGTAGACCAAATATGTAA [TGCATGCA_site9]	9.07
CAAAAAAAAATCTGTAGTACTTATTAATATTGCTGT [XGTACX_site4767]	9.15
ATCACAAAAAAGTTCATACACACAACCTATTTATAT [CACACA_site2888]	9.68
AAATCAAATTTTTAGAGTACTTAAGTTTTCTATATA [XGTACX_site7827]	8.83
TAATATATTAATATATGTACATATTTATATATCTAC [XGTACX_site7117]	9.12
TCCCCATATGTTTTGTGTACATATATATTTTTTTGT [XGTACX_site75]	9.65
GCTTATTTTAATTCTTGTACTTATTTATATACAAAT [XGTACX_site2099]	9.54
TAATGGTGTTCATGTGGTACACTTTATAAATTGGCA [XGTACX_site729]	9.06
TTGAAAATTCTTAAGGCACACACATATATAATATAT [CACACA_site8088]	9.49
AAACTAACTCTAACATGTACATATATATATATATAT [XGTACX_site6949]	9.17
TTTTGAAGTAATACATGTACTTAAATTACTAAAAAA [XGTACX_site1955]	8.89
ACTTTGCGTTAAAAGAGTACATAATATTTTTTTTTT [XGTACX_site7533]	9.19
ATACTTTATTAATATTGTACAAAATAAGAAAAAAAA [XGTACX_site310]	9.12
CACAACAGGGTTGAGGTGCGTAAAAATAGTAGAATA [GTGCAC_site9523]	9.03

Sequence	gcPBM binding intensity (ln)
ACATAAAAATTATGCACACTTAATAAAGCGAAATGT [CACACA_site3183]	9.45
TTTTTAATCCTTTGCGCATGTAAAATTATATATTTT [TGCATGCA_site306]	9.24
TATATATATATGTGTACACAAAAAATATTATATTAT [CACACA_site5505]	9.32
ATTCTATTTTTAAGTACACACATATATATATATATA [CACACA_site3658]	9.48
ACATAATTATTATGCACACATATTTTTATGTATTTA [CACACA_site698]	9.49
ATTATATATATATTATGTACATATATTGAAGTGGAT [XGTACX_site5916]	9.39
TACGAAATCATATGTACACACACATATATATATATA [CACACA_site5216]	9.69
ACGGATTAAAAAATGTGTACGCACAAAAAAAAAAAT [XGTACX_site8259]	9.43
TGTTCAGTATTGCACACACACAACAAAATAAAAAAA [CACACA_site6314]	9.78
ATATATATATATATATGTACTTAATGTTATTATATA [XGTACX_site4508]	9.07
GAAATGTGATAATATACACACACGCATATATATATA [CACACA_site4332]	9.71
TTTTTAAAAAGTAACACACACTCTTATATATAATGA [CACACA_site3618]	9.53
AAAAAAAACAGACACACACACATAAATATAAATAAA [CACACA_site6214]	9.96
TATACATATATATATATATATAGATATATTCACGTG [XGTACX_negctrl_site265]	9.18
AAAATAATAATAAATGCATGTGTTGTTTACTAAGAA [TGCATGCA_site528]	9.53
TACCTATACAGACACACACACACACGCCCACAAAAA [CACACA_site6375]	10.3
TTTTTATATTTATATAAATAAAAAAATAACAAAATG [XGTACX_negctrl_site231]	9.03
CTCCATATTAGACACACACACAAATGAAAAAAATAT [CACACA_site7420]	9.96
TAAAATTAAACAAAAAAAAAGAAAAAAAAAAAAAAG [CACACA_negctrl_site1098]	9.35
TGAACATACATCAAAAGTACAAACTCGCATGTTATA [XGTACX_site3320]	9.33
CCGCCATTGTACCATCCACACACATATATATATGTA [CACACA_site8866]	9.97
AATATTCTATATGATACATGCATGATGGAATAAAAA [TGCATGCA_site980]	9.08
AATGTAGACACATATGTACACACATATATATGTATA [CACACA_site9014]	9.52

Sequence	gcPBM binding intensity (ln)
TTTTGGTATACGTAATTATATAATATGTTAATCAAT [CACACA_negctrl_site645]	9.14
ATATATTTTTATATAGTGCAAGTAATAAAAAGGAAT	9.5
GGAAAAAAATAAAATAAGTATTTTACATACATATTG [TGCATGCA_negctrl_site10]	9
ATAACATTCAAAAAATGTACAAACATATGAATAAAT [XGTACX_site7013]	9.27
AAAACTTTTTTAACAGAAAAATAGGGATACAATATA [CACACA_negctrl_site1708]	9.35
ATATCATTTTATTTGTGTACTTAAAAAGTTGCAATG [XGTACX_site4099]	9.22
GGAATAACCAGACACACACACACATATAAATATGTA [CACACA_site7632]	10.1
TAAATACAAGAACTGACACACATACATACTACATTT [CACACA_site5561]	9.83
TGAAAATATATAACGCGTACAAAAAGGAAATACAAT [XGTACX_site3534]	9.71
AAATAGTTGTTAAAGGTGCACAATATGGATATAAGA	9.53
TTTTTTTTTTTTTTTGCATGTTGAAAATAAAATTAT [TGCATGCA_site86]	8.64
ATTTATTTTAAATAAGTGCAAAATGGTTATAAATAA	9.06
ATAAATATTTTGTAAGCATGCTTTTAAAAAAAGAAA [TGCATGCA_site572]	8.88
AAAATTTCAATAAATACACACATATAAATATAGATT [CACACA_site6893]	9.5
ATGTACTATAGGCACACACACTCACATATATATATA [CACACA_site5745]	9.83
ATATTGCTTATTTGATGTACGAATACACTAGTATTA [XGTACX_site4536]	9.29
ATACTAAATGAACACACACACATATAGATTTATAAC [CACACA_site6200]	10.2
TATCTGTATATGTGTACACATATTCTTAACTCACGC [CACACA_site4255]	9.35
ATTTTATGAAATGTTGCACACAAAAAACAACATGTT [CACACA_site8408]	9.34
TATATGATATAATATACACACATACATATATATATA [CACACA_site8066]	9.44
GAACAACAACAAAAAAAAAAAAAAAAAAAAAAAAAA [CACACA_negctrl_site199]	8.63
TAAATAAATATATGTACACACACAAATATATACATA [CACACA_site8577]	9.63
CTGAATTTTTATAACTGTACATATTTGATATAAAAA [XGTACX_site183]	8.89

Sequence	gcPBM binding intensity (ln)
ATATTTAATACAAATACACACACAAATATATACATA [CACACA_site9248]	10.1
ATGGGAAAAACATTCCGTACATACATACACATATAT [XGTACX_site8263]	9.4
ATGATTTATTATTATACACACAAAAAAAAAAAAGGA [CACACA_site264]	9.51
GAACAAAAAAAAAATTGTACACAATTTTTTAAAATT [XGTACX_site4455]	8.98
AATACATACATATATACATGCATACATATAAATATA [TGCATGCA_site674]	9.41
GCTTATAAGATATGCACACACAACACTTACAAAAAA [CACACA_site817]	9.74
AAACAAAAAAAATAAGCACACATATATATATATATA [CACACA_site8173]	9.43
AAAATTATATGTAATTGTACGGAATTATATACGCAA [XGTACX_site2048]	9.25
TCCTGTGGTTATATAACACACATTATTGCTTATAAG [CACACA_site6823]	9.48
TTTTTTAAAAATATTATCATCGTAACAAGAAATCGA [CACACA_negctrl_site1111]	8.94
TTTTTTTTTTTTTTTGCACACTTAAATTTGGTGGGG [CACACA_site2344]	9.74
ATATTATTTTATTTTTGTACAGATATCTTTAAAAAA [XGTACX_site3734]	9.09
TACAGATAAATATACATACATATATATATATATATA [XGTACX_negctrl_site182]	9.05
CACGCGCACGAACACACACACACACGCATATAAATA [CACACA_site7103]	10.3
AACATCATCTCTCCACAACAACAAAAAAAAAAATAC [CACACA_negctrl_site311]	9.4
TTATTAAAAATGGTATGTACGCACATAATATATATA [XGTACX_site3230]	9.2
AATACATACATACATACATGCATATATATATATATA [TGCATGCA_site462]	9.42
TATTTTTATTGGTGAATACACACGTATATATATATT [CACACA_site2401]	9.45
TGTTTATGTTTACATGTGCGCATTACAGAAAAAAAA [GTGCAC_site9669]	9.06
TTTTTATTTAAAAGTAGTACAAGGGTTATTATTAAC [XGTACX_site1555]	8.97
